Experimental data as given in the supplement of paper PMC8728848.
Some of the results follow.

What was measured:
Test in all cases: glycan array binding signal (z-score within array); higher = stronger binding
Conditions in all cases: glycan notation: IUPAC condensed, linker removed
[1] = molecular target: Gal(b1-3)GalNAc(b1-3)Gal(a1-4)Gal(b1-4)Glc
Outline: (§1)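 Columns mapping to the same glycan were averaged after glycan names were converted to IUPAC-condensed notation. The data come from 3228 arrays in the Consortium for Functional Glycomics database, limited to those with an available protein sequence. Binding is reported as a within-array Z-score averaged across arrays of one protein sequence and across linkers.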

[2] = molecular target: Gal(b1-3)GalNAc(b1-4)Gal(b1-4)Glc
Outline: as §1

[3] = molecular target: Gal(b1-3)GalNAc(b1-4)[Neu5Ac(a2-3)]Gal(b1-4)Glc
Outline: as §1

[4] = molecular target: Gal(b1-3)GlcNAc
Outline: as §1

[5] = molecular target: Gal(b1-3)GlcNAc(a1-3)Gal(b1-4)GlcNAc
Outline: as §1

[6] = molecular target: Gal(b1-3)GlcNAc(a1-6)Gal(b1-4)GlcNAc
Outline: as §1

[7] = molecular target: Gal(b1-3)GlcNAc(b1-2)Man
Outline: as §1

[8] = molecular target: Gal(b1-3)GlcNAc(b1-2)Man(a1-3)[Gal(b1-3)GlcNAc(b1-2)Man(a1-6)]Man(b1-4)GlcNAc(b1-4)GlcNAc
Outline: as §1

[9] = molecular target: Gal(b1-3)GlcNAc(b1-2)Man(a1-3)[Gal(b1-3)GlcNAc(b1-2)Man(a1-6)]Man(b1-4)GlcNAc(b1-4)[Fuc(a1-6)]GlcNAc
Outline: as §1

[10] = molecular target: Gal(b1-3)GlcNAc(b1-2)Man(a1-3)[GlcNAc(b1-4)][Gal(b1-3)GlcNAc(b1-2)Man(a1-6)]Man(b1-4)GlcNAc(b1-4)GlcNAc
Outline: as §1

[11] = molecular target: Gal(b1-3)GlcNAc(b1-2)[Gal(b1-3)GlcNAc(b1-6)]Man(a1-6)[Gal(b1-3)GlcNAc(b1-2)Man(a1-3)]Man(b1-4)GlcNAc(b1-4)GlcNAc
Outline: as §1

[12] = molecular target: Gal(b1-3)GlcNAc(b1-3)Gal(b1-3)GlcNAc
Outline: as §1

[13] = molecular target: Gal(b1-3)GlcNAc(b1-3)Gal(b1-4)Glc
Outline: as §1

[14] = molecular target: Gal(b1-3)GlcNAc(b1-3)Gal(b1-4)GlcNAc
Outline: as §1

[15] = molecular target: Gal(b1-3)GlcNAc(b1-3)Gal(b1-4)GlcNAc(b1-2)Man(a1-3)[Gal(b1-3)GlcNAc(b1-3)Gal(b1-4)GlcNAc(b1-2)Man(a1-6)]Man(b1-4)GlcNAc(b1-4)GlcNAc
Outline: as §1

[16] = molecular target: Gal(b1-3)GlcNAc(b1-3)Gal(b1-4)GlcNAc(b1-2)[Gal(b1-3)GlcNAc(b1-3)Gal(b1-4)GlcNAc(b1-6)]Man(a1-6)[Gal(b1-3)GlcNAc(b1-3)Gal(b1-4)GlcNAc(b1-2)Man(a1-3)]Man(b1-4)GlcNAc(b1-4)[Fuc(a1-6)]GlcNAc
Outline: as §1

[17] = molecular target: Gal(b1-3)GlcNAc(b1-3)Gal(b1-4)GlcNAc(b1-3)Gal(b1-4)GlcNAc(b1-2)[Gal(b1-3)GlcNAc(b1-3)Gal(b1-4)GlcNAc(b1-3)Gal(b1-4)GlcNAc(b1-6)]Man(a1-6)[Gal(b1-3)GlcNAc(b1-3)Gal(b1-4)GlcNAc(b1-3)Gal(b1-4)GlcNAc(b1-2)Man(a1-3)]Man(b1-4)GlcNAc(b1-4)[Fuc(a1-6)]GlcNAc
Outline: as §1

[18] = molecular target: Gal(b1-3)GlcNAc(b1-3)Gal(b1-4)GlcNAc(b1-6)[Gal(b1-3)GlcNAc(b1-3)]Gal(b1-4)Glc
Outline: as §1

[19] = molecular target: Gal(b1-3)GlcNAc(b1-3)Gal(b1-4)[Fuc(a1-3)]GlcNAc
Outline: as §1

[20] = molecular target: Gal(b1-3)GlcNAc(b1-3)Gal(b1-4)[Fuc(a1-3)]GlcNAc(b1-6)[Gal(b1-3)GlcNAc(b1-3)]Gal(b1-4)Glc
Outline: as §1

[21] = molecular target: Gal(b1-3)GlcNAc(b1-3)GalNAc
Outline: as §1

[22] = molecular target: Gal(b1-3)GlcNAc(b1-6)Gal(b1-4)GlcNAc
Outline: as §1

[23] = molecular target: Gal(b1-3)GlcNAc(b1-6)GalNAc
Outline: as §1

[24] = molecular target: Gal(b1-3)GlcNAc(b1-6)[Gal(b1-3)]GalNAc
Outline: as §1

[25] = molecular target: Gal(b1-3)GlcNAc6S
Outline: as §1

[26] = molecular target: Gal(b1-3)[Fuc(a1-4)]GlcNAc
Outline: as §1

[27] = molecular target: Gal(b1-3)[Fuc(a1-4)]GlcNAc(b1-2)Man
Outline: as §1

[28] = molecular target: Gal(b1-3)[Fuc(a1-4)]GlcNAc(b1-2)Man(a1-3)[Gal(b1-3)[Fuc(a1-4)]GlcNAc(b1-2)Man(a1-6)]Man(b1-4)GlcNAc(b1-4)[Fuc(a1-6)]GlcNAc
Outline: as §1

[29] = molecular target: Gal(b1-3)[Fuc(a1-4)]GlcNAc(b1-3)Gal(b1-3)[Fuc(a1-4)]GlcNAc
Outline: as §1

[30] = molecular target: Gal(b1-3)[Fuc(a1-4)]GlcNAc(b1-3)Gal(b1-4)[Fuc(a1-3)]GlcNAc
Outline: as §1

[31] = molecular target: Gal(b1-3)[Fuc(a1-4)]GlcNAc(b1-6)GalNAc
Outline: as §1

[32] = molecular target: Gal(b1-3)[GlcNAc(b1-6)]GalNAc
Outline: as §1

[33] = molecular target: Gal(b1-3)[Neu5Ac(a2-6)]GalNAc
Outline: as §1

[34] = molecular target: Gal(b1-3)[Neu5Ac(a2-6)]GlcNAc(b1-4)Gal(b1-4)Glc
Outline: as §1

[35] = molecular target: Gal(b1-3)[Neu5Ac(b2-6)]GalNAc
Outline: as §1

[36] = molecular target: Gal(b1-4)Gal
Outline: as §1

[37] = molecular target: Gal(b1-4)GalNAc(a1-3)[Fuc(a1-2)]Gal(b1-4)GlcNAc
Outline: as §1

[38] = molecular target: Gal(b1-4)GalNAc(b1-3)[Fuc(a1-2)]Gal(b1-4)GlcNAc
Outline: as §1

B1: Epa13 (Candida glabrata) (protein)
chain: MGSSHHHHHHSSGLVPRGSHMASDSSENGYAHGCSPSIRAKLKPGLSMEIYSYALRPTDDHCWDSAYLDPMFPRTGYLTHKLLGKAEGIIGPLNFLAKNPACIPAVSTLPLAFHFPKPFTITNFTMLLYGYLSPKKTGKYTFKLLADDLLLMNFGADNAFDCCSHDATKDNIGEYVAYSVWPGVNKNVTVYLESGIYYPLRLFFNNRDAIAQLDFAYYFNDSPIRQTDFSGMFFSIPDSVKCPANI
[1]
  glycan array binding signal (z-score): -0.172
[2]
  glycan array binding signal (z-score): -0.276
[3]
  glycan array binding signal (z-score): -0.173
[4]
  glycan array binding signal (z-score): -0.201
[5]
  glycan array binding signal (z-score): -0.046
[6]
  glycan array binding signal (z-score): -0.253
[7]
  glycan array binding signal (z-score): -0.027
[8]
  glycan array binding signal (z-score): -0.226
[9]
  glycan array binding signal (z-score): -0.371
[10]
  glycan array binding signal (z-score): -0.285
[11]
  glycan array binding signal (z-score): -0.019
[12]
  glycan array binding signal (z-score): -0.037
[13]
  glycan array binding signal (z-score): -0.309
[14]
  glycan array binding signal (z-score): -0.418
[15]
  glycan array binding signal (z-score): -0.321
[16]
  glycan array binding signal (z-score): 0.141
[17]
  glycan array binding signal (z-score): 0.175
[18]
  glycan array binding signal (z-score): 0.083
[19]
  glycan array binding signal (z-score): -0.011
[20]
  glycan array binding signal (z-score): -0.379
[21]
  glycan array binding signal (z-score): -0.128
[22]
  glycan array binding signal (z-score): -0.113
[23]
  glycan array binding signal (z-score): -0.243
[24]
  glycan array binding signal (z-score): -0.014
[25]
  glycan array binding signal (z-score): -0.024
[26]
  glycan array binding signal (z-score): -0.314
[27]
  glycan array binding signal (z-score): 0.332
[28]
  glycan array binding signal (z-score): -0.37
[29]
  glycan array binding signal (z-score): -0.321
[30]
  glycan array binding signal (z-score): -0.541
[31]
  glycan array binding signal (z-score): -0.222
[32]
  glycan array binding signal (z-score): -0.39
[33]
  glycan array binding signal (z-score): -0.251
[34]
  glycan array binding signal (z-score): -0.271
[35]
  glycan array binding signal (z-score): -0.408
[36]
  glycan array binding signal (z-score): -0.344
[37]
  glycan array binding signal (z-score): -0.434
[38]
  glycan array binding signal (z-score): -0.254
